Source: the supplement of paper PMC8183993
Where “and” joins values, the source holds several entries; their conditions need not be identical. Equal entries are not always repeated. Structures can show the parent of a compound that is named as a salt. ± gives the standard deviation of the averaged measurements. The full ranking holds about 3,100 compounds; the median of “mean cytoplasmic OPP incorporation (global translation) relative to DMSO” is about 100, and the lowest 2% start at about 56. The list shows a part of the results.

What follows are compounds tested on U2OS (assay: mean cytoplasmic OPP incorporation (global translation) relative to DMSO (% of DMSO); higher = more protein synthesis). Conditions: 10 µM; 24 h.
Description: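 Primary image-based screen in U2OS cells: compounds at 10 uM for 24 h, then a 1 h o-propargyl-puromycin (OPP) pulse, click labelling, and high-throughput microscopy. Mean cytoplasmic OPP intensity and nuclei count were normalised to DMSO wells within each plate (DMSO = 100) and averaged over triplicate plates.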

SMILES	mean cytoplasmic OPP incorporation
CN(C)CC(c1ccc(O)cc1)C1(O)CCCCC1 (stereo not drawn) [Desvenlafaxine Succinate]	98.6
COc1ccc(S(=O)(=O)N(CCO)c2ccccc2CN(C)C/C=C/c2ccc(Cl)cc2)cc1 [KN-93 Phosphate]	116
O=C(Nc1ccccc1Br)N[C@@H]1CCN(c2ccc(C(F)(F)F)cn2)C1	93
c1ccc(CNc2ncnc3nc[nH]c23)cc1 [Aminopurine, 6-benzyl]	95.9
CCN[C@@H]1C[C@H](N)[C@@H](O[C@H]2OC(CN)=CC[C@H]2N)[C@H](O)[C@H]1O[C@H]1OC[C@](C)(O)[C@H](NC)[C@H]1O [Netilmicin Sulfate]	101
CC(C)(O)c1ccccc1CC[C@@H](SCC1(CC(=O)O)CC1)c1cccc(/C=C/c2ccc3ccc(Cl)cc3n2)c1 [Montelukast]	110
O=C1NC(=O)C(c2ccccc2)(c2ccccc2)N1 [Phenytoin]	109
O=C1NC(=O)C(=Cc2ccc(-c3ccc(F)cc3)o2)S1 (stereo in doubt)	108.23 ± 0.0099
CN1Cc2c(N)cccc2C(c2ccccc2)C1 (stereo not drawn) [Nomifensine maleate]	94.2
CN(C)C/C=C/C(=O)Nc1cc2c(Nc3ccc(F)c(Cl)c3)ncnc2cc1O[C@H]1CCOC1 [Afatinib (BIBW2992)]	97
OC[C@@H](O)[C@@H](O)[C@@H](O)CO [Ribitol (Adonitol)]	101
O=C(Nc1ccccc1)Nc1ccc(-c2ccc(C(=O)[C@@H]3CCC[C@H]3C(=O)O)cc2)cc1	101
COc1ccccc1OCC(O)COC(N)=O (stereo not drawn) [Methocarbamol]	101
Cc1cc(N)c2ccccc2[n+]1CCCCCCCCCC[n+]1c(C)cc(N)c2ccccc21 [Dequalinium dichloride]	106
Nc1ccn([C@@H]2CS[C@H](CO)O2)c(=O)n1 [Lamivudine]	102
COC(=O)Nc1nc2cc([S+]([O-])c3ccccc3)ccc2[nH]1 (stereo not drawn) [Oxfendazole]	112
COC(=O)Nc1nc2cc([S+]([O-])c3ccccc3)ccc2[nH]1 (stereo not drawn) [Oxfendazol]	90.8
NC1CCN(c2nc3c(cc2F)c(=O)c(C(=O)O)cn3-c2ccc(F)cc2F)C1 (stereo not drawn) [Tosufloxacin hydrochloride]	104
Cn1ccc2cc3c(cc21)CCN3C(=O)Nc1cccnc1	102
N#Cc1c(NC(=O)c2cccc3ccccc23)sc2c1CCCC2 [JNK inhibitor IX]	84.7
C=CC(=O)Nc1cccc(Nc2nc(Nc3ccc(OCCOC)cc3)ncc2F)c1	81.3
CCC(=O)Nc1cccc(Oc2nc(Nc3ccc(N4CCN(C)CC4)cc3OC)ncc2Cl)c1	110
Clc1cccc2c1CN(C1=NCCN1)C2	97.2
C[C@@H]1COC(Nc2ccc3ncnc(Nc4ccc(OCc5nccs5)c(Cl)c4)c3c2)=N1	112 ± 6.4
C=CCOC(Cn1ccnc1)c1ccc(Cl)cc1Cl (stereo not drawn) [Enilconazole]	101
C#C[C@]1(O)CC[C@H]2[C@@H]3CCC4=CC(=O)CC[C@@H]4[C@H]3CC[C@@]21CC [Levonorgestrel (Levonelle)]	114

SMILES	mean cytoplasmic OPP incorporation
C#C[C@]1(O)CC[C@H]2[C@@H]3CCC4=CC(=O)CC[C@@H]4[C@H]3CC[C@@]21CC [Norgestrel-(-)-D]	109
N=C(N)NCCN1CCCCCCC1 [Guanethidine sulfate]	103
N#C/C(=C\c1ccc(O)c(O)c1)C(=O)NCc1ccccc1	99.7 and 93.5
CC1(C)[C@@H](OC(=O)CCC(=O)O)CC[C@]2(C)[C@H]3C(=O)C=C4[C@@H]5C[C@@](C)(C(=O)O)CC[C@]5(C)CC[C@@]4(C)[C@]3(C)CC[C@@H]12 [Carbenoxolone disodium salt]	104
CC(CN(C)C)CN1c2ccccc2Sc2ccccc21 (stereo not drawn) [Trimeprazine tartrate]	106
CCCOc1ccc(C(=O)OCCN(CC)CC)cc1N [Proparacaine hydrochloride]	102
CC(=O)N[C@@H](CSCC=C(C)CCC=C(C)CCC=C(C)C)C(=O)O [Acetyl-S-farnesyl-L-cysteine]	123
COC(=O)Nc1ccc2[nH]cc(CCNC(C)=O)c2c1	98.8
CCCCCCCCCCCCCCCC(=O)C1=C(O)[C@@H](CO)OC1=O	104
CN1C2CCC1CC(OC(=O)C(O)c1ccccc1)C2 (stereo not drawn) [Homatropine Bromide]	91.7
Cc1cc(C)c(S(=O)(=O)Nc2cccc(C(F)(F)F)c2)c(C)c1	96.3
C[C@]1(Cn2ccnn2)[C@H](C(=O)O)N2C(=O)C[C@H]2S1(=O)=O [Tazobactam]	99 ± 11
CCN(CC)CCCCNc1ncc2cc(-c3cc(OC)cc(OC)c3)c(NC(=O)NC(C)(C)C)nc2n1	111 ± 7.3
CC(CN(C)C)C(C)(O)Cc1ccc(Cl)cc1 (stereo not drawn) [Clobutinol hydrochloride]	101
CC[C@@H](CO)NCCN[C@@H](CC)CO [Ethambutol dihydrochloride]	99.6
CC[C@@H](CO)NCCN[C@@H](CC)CO [Ethambutol HCl]	98.3
O=C(NCCN1CCCCC1)c1ccc(I)cc1 [N-[2-(Piperidinylamino)ethyl]-4-iodobenzamide]	100
CC1=C(/C=C/C(=C/C=C/C(C)=C/C(=O)O)c2ccc(C)cc2)C(C)(C)CCC1	105
CC(C)C[C@H](NC(=O)CNC(=O)c1cc(Cl)ccc1Cl)B1OC(=O)C(CC(=O)O)(CC(=O)O)O1	120
CC(=O)OCC(=O)[C@@]1(OC(C)=O)[C@@H](C)C[C@H]2[C@@H]3C[C@H](F)C4=CC(=O)C=C[C@]4(C)[C@@]3(F)[C@@H](O)C[C@@]21C [Diflorasone Diacetate]	101
CC1=C(/C=C/C(C)=C\C=C\C(C)=C\C(=O)O)C(C)(C)CCC1 [9-cis Retinoic acid]	96.4
CNC(=O)c1ccc(C)c(-n2c(C)cc(OCc3ccc(F)cc3F)c(Br)c2=O)c1	99.2
NC(=O)c1cccc(N)c1 [3-Aminobenzamide]	103
Cc1ccc(-n2nc(C(C)(C)C)cc2NC(=O)Nc2ccc(OCCN3CCOCC3)c3ccccc23)cc1 [BIRB 796 (Doramapimod)]	105
C=CCSCC1Nc2cc(Cl)c(S(N)(=O)=O)cc2S(=O)(=O)N1 (stereo not drawn) [Althiazide]	85.6
CC(=O)N(CC(O)CN(C(C)=O)c1c(I)c(C(=O)NCC(O)CO)c(I)c(C(=O)NCC(O)CO)c1I)c1c(I)c(C(=O)NCC(O)CO)c(I)c(C(=O)NCC(O)CO)c1I (stereo not drawn) [Iodixanol]	102

SMILES	mean cytoplasmic OPP incorporation
CC(C(=O)O)c1ccc(C(=O)c2ccccc2)s1 (stereo not drawn) [Tiaprofenic acid]	99.8
CCCCC[C@H](O)/C=C/C=C\CCCCCCCC(=O)O [13(S)-Hydroxy-9Z,11E-octadecadienoic acid]	99.3
CN(C)CC/C=C1/c2ccccc2COc2ccc(CC(=O)O)cc21 [Olopatadine hydrochloride]	102
c1nc(CC2CCNCC2)c[nH]1 [Immepip dihydrobromide]	96.1
O=C(O)C1=CCCN(CCON=C(c2ccccc2)c2ccccc2)C1	96.2
c1ccc(CN(CC2=NCCN2)c2ccccc2)cc1 [Antazoline hydrochloride]	92 ± 3
CC[C@H](C)C[C@H](C)CCCCCCCCC(=O)N[C@H]1C[C@@H](O)[C@@H](NCCN)NC(=O)[C@@H]2[C@@H](O)CCN2C(=O)[C@H]([C@H](O)CCN)NC(=O)[C@H]([C@H](O)[C@@H](O)c2ccc(O)cc2)NC(=O)[C@@H]2C[C@@H](O)CN2C(=O)[C@H]([C@@H](C)O)NC1=O [Caspofungin Acetate]	95.1
Nc1ncnc2n[nH]c(Nc3ccc(F)cc3)c12	83.1
C[C@@]1(c2cc(-c3cncnc3)c(F)cc2F)CCSC(N)=N1	104
CCc1cnn2c(NCc3ccc[n+]([O-])c3)cc(N3CCCC[C@H]3CCO)nc12	60.9 ± 3.4
Cn1c(=O)c2c(ncn2CCO)n(C)c1=O [Etofylline]	93.1
COC(C)(C)CCCC(C)C/C=C/C(C)=C/C(=O)O (stereo not drawn) [Methoprene acid]	99.2
CCCCCCCCCCCCCCSCC(=O)O [Tetradecylthioacetic acid]	102
CCc1cc2c(c(CC)n1)CCC(=O)N2Cc1ccc(-c2ccccc2-c2nn[nH]n2)cc1 [ZD 7155 hydrochloride]	98.8
C#CCN(C)CCCOc1ccc(Cl)cc1Cl [Clorgyline hydrochloride]	87.7
CC(C)(CO)Cc1cc(C(C)(C)C)c(O)c(C(C)(C)C)c1	103
O=C(O)CN(CCN(CC(=O)O)CC(=O)O)CCN(CC(=O)O)CC(=O)O [Pentetic acid]	97.9
CC(C(=O)Nc1cccc(/N=C/c2c(O)ccc3ccccc23)c1)c1ccccc1 (stereo not drawn) [Salermide]	109
CC(C)NCC(O)c1cc(O)cc(O)c1 (stereo not drawn) [Metaproterenol sulfate, orciprenaline sulfate]	103
O=[N+]([O-])c1cc2nc(O)c(O)nc2cc1[N+](=O)[O-]	108
Oc1cc2c(c(Cl)c1O)CCNCC2c1ccccc1 (stereo not drawn)	92.4
CC(C)=CCC/C(C)=C/CC/C(C)=C/CC/C(C)=C/CO [Geranylgeraniol]	104
CCN(CC)Cc1cc(Nc2ccnc3cc(Cl)ccc23)ccc1O [Amodiaquin dihydrochloride dihydrate]	112
COCC(=O)O[C@]1(CCN(C)CCCc2nc3ccccc3[nH]2)CCc2cc(F)ccc2[C@@H]1C(C)C [Mibefradil dihydrochloride]	116
OC[C@H]1O[C@@H](n2cnc3c2N=CNC[C@H]3O)C[C@@H]1O [Pentostatin]	107
CN(C)c1ccccc1CN1CCCN(Cc2ccccc2N(C)C)C1c1ccncc1	101
